Results on 26 compounds are retold here after the antibiotic and cytotoxicity screens of Wong et al. (2023).

SMILES strings stand for the structures. The list shows a part of the results.

In one experiment the test system is HSkMC. As to the kind of experiment: cytotoxicity call (relative viability < 0.9). Particulars: 10 µM.
For another experiment, the system named is HepG2. As to the kind of experiment: cytotoxicity call (relative viability < 0.9). Particulars: 10 µM.
The test system of another experiment is S. aureus RN4220. In words: growth inhibition call (relative growth <= 0.2). The settings on record: 50 µM.

As to `C=CCC[C@H](Cc1ccc(F)cc1)C(=O)OC[C@H]1CCCN1C(=O)[C@H](CC=C)CC(=O)N(CCO)Cc1ccccc1`, the cytotoxicity call in the experiment on HSkMC and in the experiment with HepG2 was “inactive” throughout. Further, the growth inhibition call in the experiment with S. aureus RN4220 is “inactive”.
Regarding `C[C@H]1CN([C@@H](C)CO)C(=O)c2cc(NC(=O)c3ccncc3)ccc2O[C@@H]1CN(C)S(=O)(=O)c1cn(C)cn1`, the cytotoxicity call in the experiment on HSkMC and in the experiment on HepG2 was “inactive” throughout. For the same compound, in the experiment with S. aureus RN4220, the growth inhibition call is “inactive”.
`CC(=O)OC1CCC2(C)C3=C(CCC2C1(C)C)C1(C)CCC(C(C)CCC=C(C)C)C1(C)CC3` (stereo not drawn): the cytotoxicity call in the experiment on HSkMC and in the experiment on HepG2 was “inactive” each time. Moreover, the growth inhibition call in the experiment with S. aureus RN4220 was “inactive”.
In the case of `C[C@@H]1CN([C@H](C)CO)C(=O)c2c(c3ccccc3n2C)-c2ccccc2CO[C@@H]1CN(C)C(=O)NC1CCCCC1`, the cytotoxicity call in the experiment on HSkMC and in the experiment on HepG2 was “inactive” each time. Besides, the growth inhibition call in the experiment with S. aureus RN4220 was “inactive”.
As to `Nc1ncnc2c1nc(Br)n2[C@H]1O[C@H]2COP(=O)(O)O[C@@H]2[C@@H]1O`, the cytotoxicity call in the experiment on HSkMC and in the experiment with HepG2 was “inactive” throughout. In addition, in the experiment on S. aureus RN4220, the growth inhibition call is “inactive”.
For `Cc1noc(C)c1S(=O)(=O)Nc1cccc2c1O[C@@H](CN(C)S(=O)(=O)c1ccc(F)cc1)[C@@H](C)CN([C@H](C)CO)C2=O`, the cytotoxicity call with HSkMC and in the experiment on HepG2 was “inactive” in each case. In the experiment with S. aureus RN4220, the growth inhibition call was “inactive”.
`C[C@@H]1CN([C@H](C)CO)C(=O)Cc2cc(NC(=O)NC3CCCCC3)ccc2O[C@@H]1CN(C)Cc1ccc(C(=O)Nc2ccccc2N)cc1`: the cytotoxicity call in the experiment on HSkMC is “inactive”. Besides, the cytotoxicity call with HepG2 is “active”. Further, the growth inhibition call with S. aureus RN4220 was “inactive”.
As to `COc1ccccc1S(=O)(=O)N[C@H]1CC[C@H](CCNC(=O)C2CCOCC2)O[C@@H]1CO`, the cytotoxicity call with HSkMC and in the experiment on HepG2 was “inactive” throughout. Besides, the growth inhibition call with S. aureus RN4220 is “inactive”.
In the case of `CO[C@H]1CN(C)C(=O)c2ccc(NC(=O)C3CC3)cc2OC[C@@H](C)N(C(=O)Cc2ccccn2)C[C@@H]1C`, the cytotoxicity call in the experiment with HSkMC and in the experiment on HepG2 was “inactive” each time. For the same compound, the growth inhibition call in the experiment on S. aureus RN4220 is “inactive”.
Consider `COc1ccc(NC(=O)N(C)C[C@@H]2OCCCC[C@@H](C)Oc3ccc(NC(=O)NC(C)C)cc3C(=O)N([C@@H](C)CO)C[C@H]2C)cc1`, for which the cytotoxicity call with HSkMC and with HepG2 was “inactive” throughout. The growth inhibition call with S. aureus RN4220 is “inactive”.
For the compound `Cc1noc(C)c1S(=O)(=O)Nc1ccc2c(c1)C(=O)N([C@H](C)CO)C[C@H](C)[C@@H](CN(C)Cc1ccc(C(=O)Nc3ccccc3N)cc1)OCCCC[C@@H](C)O2`, the cytotoxicity call in the experiment with HSkMC is “inactive”. Also, the cytotoxicity call with HepG2 is “active”. Also, the growth inhibition call in the experiment with S. aureus RN4220 is “inactive”.
`Cc1noc(C)c1S(=O)(=O)Nc1cccc2c1O[C@H](CN(C)Cc1ccc(C(=O)O)cc1)[C@@H](C)CN([C@@H](C)CO)C2=O`: the cytotoxicity call in the experiment with HSkMC and in the experiment on HepG2 was “inactive” in each case. Besides, the growth inhibition call in the experiment on S. aureus RN4220 is “inactive”.
Take `C[C@@H]1CN([C@@H](C)CO)C(=O)c2cc(NC(=O)c3ccccc3)ccc2O[C@@H](C)CCCCO[C@H]1CN(C)C(=O)Nc1ccccc1`: the cytotoxicity call in the experiment on HSkMC and in the experiment on HepG2 was “inactive” throughout. In addition, in the experiment with S. aureus RN4220, the growth inhibition call was “inactive”.
For `NCCNCCNCCN`, the cytotoxicity call in the experiment on HSkMC and in the experiment on HepG2 was “inactive” in each case. Further, the growth inhibition call in the experiment on S. aureus RN4220 was “inactive”.
For the compound `C[C@H](CO)N1C[C@H](C)[C@@H](CN(C)C(=O)Cc2cccnc2)Oc2ncc(C#CCc3ccccc3)cc2C1=O`, the cytotoxicity call in the experiment with HSkMC and in the experiment with HepG2 was “inactive” in each case. For the same compound, the growth inhibition call in the experiment with S. aureus RN4220 is “inactive”.
Regarding `COc1ccc(cc1)CN1C[C@]2(CN(C2)C(=O)Cc2ccncc2)c2c([nH]c3cc(ccc23)OC)[C@H]1CO`, the cytotoxicity call with HSkMC and in the experiment with HepG2 was “inactive” throughout. Moreover, the growth inhibition call with S. aureus RN4220 is “inactive”.
As for `Nc1nc2nn[nH]c2c(=O)[nH]1`, the cytotoxicity call in the experiment with HSkMC and in the experiment with HepG2 was “inactive” in each case. Also, the growth inhibition call with S. aureus RN4220 was “inactive”.
Take `C[C@@H]1CN([C@H](C)CO)C(=O)c2cc(NC(=O)CCC(F)(F)F)ccc2O[C@@H](C)CCCCO[C@@H]1CN(C)Cc1ccc2c(c1)OCO2`: the cytotoxicity call with HSkMC and in the experiment on HepG2 was “inactive” throughout. Also, the growth inhibition call in the experiment on S. aureus RN4220 was “inactive”.
With `C[C@@H]1CN([C@@H](C)CO)C(=O)c2cc(N(C)C)ccc2O[C@@H]1CN(C)S(=O)(=O)c1ccc(Cl)cc1`, the cytotoxicity call with HSkMC and in the experiment on HepG2 was “inactive” throughout. In the experiment on S. aureus RN4220, the growth inhibition call is “inactive”.
In the case of `NC(N)=Nc1nc(CSCCC(N)=NS(N)(=O)=O)cs1`, the cytotoxicity call in the experiment on HSkMC and in the experiment on HepG2 was “inactive” in each case. Also, the growth inhibition call with S. aureus RN4220 is “inactive”.
In the case of `C[C@H]1CN([C@@H](C)CO)C(=O)c2cc(NC(=O)CCCN(C)C)ccc2O[C@H]1CN(C)S(=O)(=O)c1ccc(Cl)cc1`, the cytotoxicity call in the experiment on HSkMC and with HepG2 was “inactive” each time. Moreover, in the experiment on S. aureus RN4220, the growth inhibition call was “inactive”.
As for `CN1CCOC(c2ccccc2)c2ccccc2C1` (stereo not drawn), the cytotoxicity call in the experiment with HSkMC and with HepG2 was “inactive” each time. Also, the growth inhibition call in the experiment on S. aureus RN4220 was “inactive”.
In the case of `COc1ccc(S(=O)(=O)N(C)C[C@@H]2Oc3ccc(NC(=O)CCC(F)(F)F)cc3CC(=O)N([C@@H](C)CO)C[C@H]2C)cc1`, the cytotoxicity call in the experiment on HSkMC and with HepG2 was “inactive” throughout. In the experiment on S. aureus RN4220, the growth inhibition call is “inactive”.
On to `Cc1noc(C)c1S(=O)(=O)Nc1cccc2c1O[C@@H](CN(C)C(=O)Nc1ccccc1)[C@@H](C)CN([C@H](C)CO)C2=O`, for which the cytotoxicity call in the experiment with HSkMC and with HepG2 was “inactive” in each case. For the same compound, the growth inhibition call with S. aureus RN4220 is “inactive”.
As for `C[C@@H]1CN([C@@H](C)CO)C(=O)c2cc(NC(=O)Nc3ccccc3)ccc2O[C@@H]1CN(C)Cc1ccc(-c2ccccc2)cc1`, the cytotoxicity call in the experiment with HSkMC and in the experiment with HepG2 was “active” each time. Further, the growth inhibition call in the experiment on S. aureus RN4220 was “inactive”.
On to `CC(C)CC#Cc1ccc2c(c1)O[C@H](CN(C)C(=O)Cc1cccnc1)[C@H](C)CN([C@@H](C)CO)S2(=O)=O`, for which the cytotoxicity call in the experiment on HSkMC (human skeletal muscle cells) and in the experiment on HepG2 was “inactive” in each case. Also, the growth inhibition call with S. aureus RN4220 was “inactive”.
